Measurements: PubChem BioAssay AID686978 (National Center for Advancing Translational Sciences (NCATS), 2013)
Screen size: about 420,000 compounds; about 64,000 (15%) were called active. This list was built around the results that the source calls inconclusive (neither active nor inactive); the mix of calls is not that of the screen. Calls come from the whole dose curve; as a rule, active = well fitted inhibition curve with a large enough effect; inconclusive = small, poorly fitted or top-dose-only effect; inactive = flat fitted curve, though single readings scatter. No potency is given beside an inconclusive call; the fits are too rough.

assay: qHTS for Inhibitors of human tyrosyl-DNA phosphodiesterase 1 (TDP1): qHTS in cells in absence of CPT; settings: DT40 Tdp1-/- hTDP1 cells, no CPT, ATP luminescence, 48 h; activity change, negative = growth inhibition: at 46.2 µM (top of the series) unless noted; note: nearly all actives have a fitted effect of over 55% in size
How it was run: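 Seeded 400 DT40-hTDP1 cells/well (vehicle DMSO, no 20 nM CPT); pinned compounds; ≥48 hr at 37 °C; CellTiter-Glo luminescence as viability measure.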
% is set by controls: 0 for no effect and ±100 for the full control effect; potency is the fitted concentration of half-maximal effect; tags give direction and shape of the fitted curve.

SMILES	Potency	activity change, negative = growth inhibition
COc1ccc(CC(=O)Nc2nc(-c3cccnc3)cs2)cc1	active: 25.9 µM	–
COC(=O)CCCC[C@@H]1O[C@H](CCc2ccccc2)Cc2[nH]c(=S)[nH]c(=O)c21	inconclusive [inhibitor, single point]	–
Cc1ccc(NC(=O)c2c(NC(=O)c3ccc(F)cc3)sc3c2CCCC3)cc1C	inconclusive [inhibitor, single point]	–
CCOc1ccc2nc(SCc3ccc(OC)cc3)sc2c1	inconclusive [inhibitor, partial curve]	–
CCOC(=O)N1CCc2c(sc(NC(=O)CCS(=O)(=O)c3ccccc3)c2C(N)=O)C1	inconclusive [inhibitor, single point]	–
O=C(c1cc(-c2cccc(Cl)c2)on1)N1CCCCC1	inactive	–
COc1ccc(/C=N\NC(=O)c2cc3c(ccc4ccccc43)o2)cc1O	inconclusive [inhibitor, single point]	–
CCOc1ccc(C(=O)Nc2ccc(CN3CCOCC3)cc2)cc1Br	inconclusive [inhibitor, single point]	–
NC(=O)c1cc(Cl)ccc1OCC(=O)Nc1ccc2c(c1)OCO2	inconclusive [inhibitor, single point]	–
COc1ccc(NC(=O)c2cc3c(=O)n(Cc4cccs4)ccc3nc2C)cc1	inconclusive [inhibitor, single point]	–
N#CC(=C1CCCC1)c1nc(-c2ccc(Cl)cc2)cs1	inactive	–
C(=N\Nc1nc2ccccc2[nH]1)/c1cccc2cccnc12	active: 2.91 µM	–
CCNc1nc(C)c2cc(Br)c(=O)n(CC)c2n1	active: 2.91 µM	–
Cn1c(=O)c([N+](=O)[O-])c(N2CCSCC2)c2ccccc21	inconclusive [inhibitor, single point]	–
Cc1ccc(N2CCN(S(=O)(=O)N3CCCCC3)CC2)cc1Cl	–	inconclusive: -30.5% [inhibitor]
COCCNc1nc(-c2ccc(OC)cc2)c(-c2ccc(OC)cc2)s1	inconclusive [inhibitor, single point]	–
C=CCC1(CC=C)CC(Cc2cnccn2)N(C(=O)OC(C)(C)C)C1 (configuration not stated)	inconclusive [inhibitor, single point]	–
C[C@H](O)[C@@H]1CN2CCc3c([nH]c4ccccc34)[C@@H]2C[C@@H]1N(C)C(=O)Nc1cccc2ccccc12	inconclusive [inhibitor, single point]	–
Oc1c(Cl)cc(Cl)cc1/C=N/c1nccs1	inconclusive [inhibitor, single point]	–
Cc1sc(NC(=O)C2CCCCC2)c(C#N)c1-c1ccccc1	inactive	–
Cc1cc(C)n(-c2ccc3cccc(NS(C)(=O)=O)c3n2)n1	active: 5.8 µM	–
COc1ccc(S(=O)(=O)N2CCOC23CCN(S(=O)(=O)c2ccc(Cl)cc2)CC3)cc1	inconclusive [inhibitor, single point]	–
CC1CCCC(NC(=O)COC(=O)c2cc(=O)[nH]c3ccccc23)C1C (configuration not stated)	inactive	–
O=C(NCC1Cc2cc(-c3cncnc3)cc(Cl)c2O1)c1cccc(Cn2cccn2)c1 (configuration not stated)	inactive	–

SMILES	Potency	activity change, negative = growth inhibition
[O-]/[N+](=C\c1ccncc1)c1ccc(Br)cc1	inconclusive [inhibitor, single point]	–
O=C(CCc1ccccc1)NC(=S)Nc1ccccc1Br	inconclusive [inhibitor, single point]	–
CCCCn1c(=NC(=O)c2cccnc2)c(C#N)cc2c(=O)n3cccc(C)c3nc21	inconclusive [inhibitor, single point]	–
CCOc1ccccc1NC(=O)CSc1nc(=O)n(CCN2CCOCC2)c2c1CCCC2	inactive	–
CC(O)(c1cccc(F)c1)c1nc(-c2ccc3ccccc3c2)cs1 (configuration not stated)	active: 23.1 µM	–
CCOC(=O)c1c(C)oc2nc(C)nc(N3CCN(c4cc(Cl)ccc4C)CC3)c12	active: 20.6 µM	–
Cc1nc2ccc(S(=O)(=O)NC(C(=O)N3CCCC3)C(C)C)cc2s1 (configuration not stated)	inactive	–
COc1ccc(S(=O)(=O)N(CC(=O)NCc2ccncc2)c2ccc(C)cc2)cc1OC	inactive	–
COc1cc2c(cc1OC)C(CNC(=O)C=Cc1ccccc1)C2 (configuration not stated)	inconclusive [inhibitor, single point]	–
COc1ccc(-n2cnc3scc(-c4ccccc4)c3c2=O)cc1	inconclusive [inhibitor, single point]	–
CNC(=S)N1N=C(c2ccc(Br)cc2)CC1c1ccc(N(C)C)cc1 (configuration not stated)	inconclusive [inhibitor, single point]	–
O=C(Nc1ccc(F)cc1)c1cccc2ccccc12	inconclusive [inhibitor, single point]	–
O=C(COc1ccc(Cl)cc1)N1N=C(c2cccs2)CC1c1ccco1 (configuration not stated)	active: 16.4 µM	–
COc1ccc(NC(=O)CSc2n[nH]c(N)n2)c([N+](=O)[O-])c1	inactive	–
CCNc1ncc2ncc(=O)n(C[C@H]3CCCO3)c2n1	active: 20.6 µM	–
O=C(NCCCN1CCOCC1)c1ccc(S(=O)(=O)Nc2cccc(C(F)(F)F)c2)cc1	inconclusive [inhibitor, single point]	–
CN(CCC(=O)Nc1ccc2c(c1)OCO2)Cc1ccccc1	inactive	–
Cc1ccc(S(=O)(=O)NCCC(=O)OCC(=O)N2CCCC2=O)cc1C	inactive	–
COc1cccc(CNC(=O)CCCn2nc(C)c3sc4ccccc4c3c2=O)c1	inconclusive [inhibitor, single point]	–
COc1ccc(NC(=O)Nc2cccc3c2O[C@H](CN(C)S(=O)(=O)c2ccccc2)[C@@H](C)CN([C@H](C)CO)C3=O)cc1	inconclusive [inhibitor, single point]	–
CCOc1ccc(-n2c(SCC(=O)Nc3cc(C)on3)nc3c([nH]c4ccccc43)c2=O)cc1	inactive	–
COc1cc(CNCc2cc3cc(C)ccc3nc2-c2ccc(F)cc2)cc(OC)c1OC	inactive	–
Cc1cccc(OCCCC(=O)N2CCCCCC2)c1C	inconclusive [inhibitor, single point]	–
